# Source: the supplement of paper PMC8728848
# This is one part of the list.
# Key:
# Assay in all cases: glycan array binding signal (z-score within array); higher = stronger binding
# Conditions in all cases: glycan notation: IUPAC condensed, linker removed
# Fuc(a1-2)Gal = target: Fuc(a1-2)Gal
# In short: (§1)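 The binding signal is a Z-score computed within each array. Data were drawn from 3228 arrays in the Consortium for Functional Glycomics database, restricted to those with a known protein sequence. Scores were averaged over arrays of the same protein sequence at different concentrations or buffers, and over linkers, and negative values can be taken as non-binding.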
# Fuc(a1-2)Gal(b1-3)GalNAc = target: Fuc(a1-2)Gal(b1-3)GalNAc
# In short: as §1
# [1] = target: Fuc(a1-2)Gal(b1-3)GalNAc(a1-3)[Fuc(a1-2)]Gal(b1-4)Glc
# In short: as §1
# [2] = target: Fuc(a1-2)Gal(b1-3)GalNAc(a1-3)[Fuc(a1-2)]Gal(b1-4)GlcNAc
# In short: as §1
# [3] = target: Fuc(a1-2)Gal(b1-3)GalNAc(b1-3)Gal
# In short: as §1
# [4] = target: Fuc(a1-2)Gal(b1-3)GalNAc(b1-3)Gal(a1-4)Gal(b1-4)Glc
# In short: as §1
# [5] = target: Fuc(a1-2)Gal(b1-3)GalNAc(b1-4)[Neu5Ac(a2-3)]Gal(b1-4)Glc
# In short: as §1
# Fuc(a1-2)Gal(b1-3)GlcNAc = target: Fuc(a1-2)Gal(b1-3)GlcNAc
# In short: as §1
# [6] = target: Fuc(a1-2)Gal(b1-3)GlcNAc(b1-2)Man(a1-3)[Fuc(a1-2)Gal(b1-3)GlcNAc(b1-2)Man(a1-6)]Man(b1-4)GlcNAc(b1-4)GlcNAc
# In short: as §1
# [7] = target: Fuc(a1-2)Gal(b1-3)GlcNAc(b1-2)Man(a1-3)[Fuc(a1-2)Gal(b1-3)GlcNAc(b1-2)Man(a1-6)]Man(b1-4)GlcNAc(b1-4)[Fuc(a1-6)]GlcNAc
# In short: as §1
# [8] = target: Fuc(a1-2)Gal(b1-3)GlcNAc(b1-3)Gal(b1-4)Glc
# In short: as §1
# [9] = target: Fuc(a1-2)Gal(b1-3)GlcNAc(b1-3)GalNAc
# In short: as §1
# [10] = target: Fuc(a1-2)Gal(b1-3)GlcNAc(b1-3)[Fuc(a1-3)[Gal(b1-4)]GlcNAc(b1-6)]Gal(b1-4)Glc
# In short: as §1
# [11] = target: Fuc(a1-2)Gal(b1-3)GlcNAc(b1-3)[Gal(b1-4)GlcNAc(b1-6)]Gal(b1-4)Glc
# In short: as §1
# [12] = target: Fuc(a1-2)Gal(b1-3)GlcNAc(b1-3)[Neu5Ac(a2-6)Gal(b1-4)GlcNAc(b1-6)]Gal(b1-4)Glc
# In short: as §1
# [13] = target: Fuc(a1-2)Gal(b1-3)[Fuc(a1-4)]GlcNAc
# In short: as §1
# [14] = target: Fuc(a1-2)Gal(b1-3)[Fuc(a1-4)]GlcNAc(b1-2)Man(a1-3)[Fuc(a1-2)Gal(b1-3)[Fuc(a1-4)]GlcNAc(b1-2)Man(a1-6)]Man(b1-4)GlcNAc(b1-4)GlcNAc
# In short: as §1
# [15] = target: Fuc(a1-2)Gal(b1-3)[Fuc(a1-4)]GlcNAc(b1-3)[Fuc(a1-3)[Gal(b1-4)]GlcNAc(b1-6)]Gal(b1-4)Glc
# In short: as §1
# [16] = target: Fuc(a1-2)Gal(b1-3)[Fuc(a1-4)]GlcNAc(b1-3)[Gal(b1-4)GlcNAc(b1-6)]Gal(b1-4)Glc
# In short: as §1
# Fuc(a1-2)Gal(b1-4)Glc = target: Fuc(a1-2)Gal(b1-4)Glc
# In short: as §1
# Fuc(a1-2)Gal(b1-4)Glc6S = target: Fuc(a1-2)Gal(b1-4)Glc6S
# In short: as §1
# Fuc(a1-2)Gal(b1-4)GlcNAc = target: Fuc(a1-2)Gal(b1-4)GlcNAc
# In short: as §1
# [17] = target: Fuc(a1-2)Gal(b1-4)GlcNAc(b1-2)Man(a1-3)[Fuc(a1-2)Gal(b1-4)GlcNAc(b1-2)Man(a1-6)]Man(b1-4)GlcNAc(b1-4)GlcNAc
# In short: as §1
# [18] = target: Fuc(a1-2)Gal(b1-4)GlcNAc(b1-2)Man(a1-3)[Fuc(a1-2)Gal(b1-4)GlcNAc(b1-2)Man(a1-6)]Man(b1-4)GlcNAc(b1-4)[Fuc(a1-6)]GlcNAc
# In short: as §1
# [19] = target: Fuc(a1-2)Gal(b1-4)GlcNAc(b1-2)[Fuc(a1-2)Gal(b1-4)GlcNAc(b1-4)]Man(a1-3)[Fuc(a1-2)Gal(b1-4)GlcNAc(b1-2)Man(a1-6)]Man(b1-4)GlcNAc(b1-4)GlcNAc
# In short: as §1
# [20] = target: Fuc(a1-2)Gal(b1-4)GlcNAc(b1-3)Gal(b1-4)GlcNAc
# In short: as §1
# [21] = target: Fuc(a1-2)Gal(b1-4)GlcNAc(b1-3)Gal(b1-4)GlcNAc(b1-3)Gal(b1-4)GlcNAc
# In short: as §1
# [22] = target: Fuc(a1-2)Gal(b1-4)GlcNAc(b1-3)GalNAc
# In short: as §1
# [23] = target: Fuc(a1-2)Gal(b1-4)GlcNAc(b1-3)[Fuc(a1-2)Gal(b1-4)GlcNAc(b1-6)]GalNAc
# In short: as §1
# [24] = target: Fuc(a1-2)Gal(b1-4)GlcNAc6S
# In short: as §1
# [25] = target: Fuc(a1-2)Gal(b1-4)[Fuc(a1-3)]GlcNAc
# In short: as §1
# [26] = target: Fuc(a1-2)Gal(b1-4)[Fuc(a1-3)]GlcNAc(b1-2)Man(a1-3)[Fuc(a1-2)Gal(b1-4)[Fuc(a1-3)]GlcNAc(b1-2)Man(a1-6)]Man(b1-4)GlcNAc(b1-4)GlcNAc
# In short: as §1
# [27] = target: Fuc(a1-2)Gal(b1-4)[Fuc(a1-3)]GlcNAc(b1-2)[Fuc(a1-2)Gal(b1-4)[Fuc(a1-3)]GlcNAc(b1-4)]Man(a1-3)[Fuc(a1-2)Gal(b1-4)[Fuc(a1-3)]GlcNAc(b1-2)Man(a1-6)]Man(b1-4)GlcNAc(b1-4)GlcNAc
# In short: as §1
# [28] = target: Fuc(a1-2)Gal(b1-4)[Fuc(a1-3)]GlcNAc(b1-3)Gal(b1-4)[Fuc(a1-3)]GlcNAc
# In short: as §1
# [29] = target: Fuc(a1-2)Gal(b1-4)[Fuc(a1-3)]GlcNAc(b1-3)Gal(b1-4)[Fuc(a1-3)]GlcNAc(b1-3)Gal(b1-4)[Fuc(a1-3)]GlcNAc
# In short: as §1
# [30] = target: Fuc(a1-2)Gal(b1-4)[Fuc(a1-3)]GlcNAc(b1-3)GalNAc
# In short: as §1
# Fuc(a1-2)Gal6S(b1-4)Glc = target: Fuc(a1-2)Gal6S(b1-4)Glc
# In short: as §1
# [31] = target: Fuc(a1-2)Gal6S(b1-4)Glc6S
# In short: as §1
# [32] = target: Fuc(a1-2)Gal6S(b1-4)GlcNAc
# In short: as §1
# Fuc(a1-2)[Gal(a1-3)]Gal = target: Fuc(a1-2)[Gal(a1-3)]Gal
# In short: as §1
# [33] = target: Fuc(a1-2)[Gal(a1-3)]Gal(b1-3)GalNAc
# In short: as §1
# [34] = target: Fuc(a1-2)[Gal(a1-3)]Gal(b1-3)GlcNAc
# In short: as §1
# [35] = target: Fuc(a1-2)[Gal(a1-3)]Gal(b1-3)GlcNAc(b1-2)Man(a1-3)[Fuc(a1-2)[Gal(a1-3)]Gal(b1-3)GlcNAc(b1-2)Man(a1-6)]Man(b1-4)GlcNAc(b1-4)GlcNAc
# In short: as §1
# [36] = target: Fuc(a1-2)[Gal(a1-3)]Gal(b1-3)GlcNAc(b1-2)Man(a1-3)[Fuc(a1-2)[Gal(a1-3)]Gal(b1-3)GlcNAc(b1-2)Man(a1-6)]Man(b1-4)GlcNAc(b1-4)[Fuc(a1-6)]GlcNAc
# In short: as §1
# [37] = target: Fuc(a1-2)[Gal(a1-3)]Gal(b1-3)GlcNAc(b1-3)GalNAc
# In short: as §1
binder,measurement,setting,value
"3FTT (Staphylococcus aureus), Q5HCZ5 (protein) MTEKEKMLAEKWYDANFDQYLINERARAKDICFELNHTRPSATNKRKELIDQLFQTTTDNVSISIPFDTDYGWNVKLGKNVYVNTNCYFMDGGQITIGDNVFIGPNCGFYTATHPLNFHHRNEGFEKAGPIHIGSNTWFGGHVAVLPGVTIGEGSVIGAGSVVTKDIPPHSLAVGNPCKVVRKIDNDLPSETLNDETIK",glycan array binding signal (z-score),Fuc(a1-2)Gal,-0.157
same,glycan array binding signal (z-score),Fuc(a1-2)Gal(b1-3)GalNAc,-0.147
same,glycan array binding signal (z-score),[1],-0.267
same,glycan array binding signal (z-score),[2],-0.281
same,glycan array binding signal (z-score),[3],1.06
same,glycan array binding signal (z-score),[4],-0.262
same,glycan array binding signal (z-score),[5],0.035
same,glycan array binding signal (z-score),Fuc(a1-2)Gal(b1-3)GlcNAc,-0.129
same,glycan array binding signal (z-score),[6],-0.034
same,glycan array binding signal (z-score),[7],-0.113
same,glycan array binding signal (z-score),[8],-0.165
same,glycan array binding signal (z-score),[9],-0.129
same,glycan array binding signal (z-score),[10],0.011
same,glycan array binding signal (z-score),[11],0.047
same,glycan array binding signal (z-score),[12],-0.004
same,glycan array binding signal (z-score),[13],-0.073
same,glycan array binding signal (z-score),[14],0.172
same,glycan array binding signal (z-score),[15],-0.156
same,glycan array binding signal (z-score),[16],-0.251
same,glycan array binding signal (z-score),Fuc(a1-2)Gal(b1-4)Glc,-0.056
same,glycan array binding signal (z-score),Fuc(a1-2)Gal(b1-4)Glc6S,-0.133
same,glycan array binding signal (z-score),Fuc(a1-2)Gal(b1-4)GlcNAc,-0.092
same,glycan array binding signal (z-score),[17],0.119
same,glycan array binding signal (z-score),[18],-0.067
same,glycan array binding signal (z-score),[19],0.265
same,glycan array binding signal (z-score),[20],-0.164
same,glycan array binding signal (z-score),[21],0.127
same,glycan array binding signal (z-score),[22],-0.089
same,glycan array binding signal (z-score),[23],-0.055
same,glycan array binding signal (z-score),[24],-0.179
same,glycan array binding signal (z-score),[25],0
same,glycan array binding signal (z-score),[26],0.815
same,glycan array binding signal (z-score),[27],0.139
same,glycan array binding signal (z-score),[28],-0.14
same,glycan array binding signal (z-score),[29],-0.145
same,glycan array binding signal (z-score),[30],1.26
same,glycan array binding signal (z-score),Fuc(a1-2)Gal6S(b1-4)Glc,0.047
same,glycan array binding signal (z-score),[31],-0.243
same,glycan array binding signal (z-score),[32],-0.134
same,glycan array binding signal (z-score),Fuc(a1-2)[Gal(a1-3)]Gal,-0.257
same,glycan array binding signal (z-score),[33],-0.022
same,glycan array binding signal (z-score),[34],0.133
same,glycan array binding signal (z-score),[35],0.002
same,glycan array binding signal (z-score),[36],0.174
same,glycan array binding signal (z-score),[37],-0.098
